Assay results from article PMC5441861.
No constants are given. Whether binding was seen depends on the method and setting. For some of these results: In cells and extracts the contact can be indirect. Some results given as binding are weak or reduced against the parent protein; the word gives no strength. Tags and fused reporters may be left off the sequences shown.

T1: GAL4 DNA-binding domain (DB)–FSD2 (Arabidopsis thaliana) (UniProt Q9LU64)
T1 sequence: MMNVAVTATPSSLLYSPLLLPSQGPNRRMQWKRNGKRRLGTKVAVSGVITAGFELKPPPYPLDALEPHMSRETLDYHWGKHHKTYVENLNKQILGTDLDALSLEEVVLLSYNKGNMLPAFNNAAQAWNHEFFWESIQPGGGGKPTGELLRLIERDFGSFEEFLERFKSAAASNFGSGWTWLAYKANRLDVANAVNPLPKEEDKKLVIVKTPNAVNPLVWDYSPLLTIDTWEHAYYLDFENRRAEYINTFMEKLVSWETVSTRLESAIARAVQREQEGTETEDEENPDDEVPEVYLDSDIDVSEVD

T2: GAL4 DNA-binding domain (DB)–FSD1 (Arabidopsis thaliana) (UniProt P21276)
T2 sequence: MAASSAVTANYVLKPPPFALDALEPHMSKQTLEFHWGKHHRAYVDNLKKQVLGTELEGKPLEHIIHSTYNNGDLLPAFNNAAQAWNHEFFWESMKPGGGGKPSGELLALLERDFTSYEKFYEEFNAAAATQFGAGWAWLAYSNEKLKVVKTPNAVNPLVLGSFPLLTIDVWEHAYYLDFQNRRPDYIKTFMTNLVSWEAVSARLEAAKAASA

T3: cYFP–FSD2 (Arabidopsis thaliana) (UniProt Q9LU64)
T3 sequence: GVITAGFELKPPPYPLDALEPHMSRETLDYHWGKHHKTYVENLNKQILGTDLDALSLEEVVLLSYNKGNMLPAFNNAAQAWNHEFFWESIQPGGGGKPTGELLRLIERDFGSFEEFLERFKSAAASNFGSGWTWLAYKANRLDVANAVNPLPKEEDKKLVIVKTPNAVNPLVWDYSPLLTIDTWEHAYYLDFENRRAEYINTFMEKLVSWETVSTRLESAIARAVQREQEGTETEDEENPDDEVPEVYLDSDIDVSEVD


Key:
[1] = biological target: T1, GAL4 DNA-binding domain (DB)–FSD2 (Arabidopsis thaliana); test: two-hybrid; ORFs in pDEST-AD (GAL4 AD) against ORFs in pDEST-DB (GAL4 DB); diploid yeast, growth on selective media
[2] = biological target: T2, GAL4 DNA-binding domain (DB)–FSD1 (Arabidopsis thaliana); test: as above
[3] = biological target: T3, cYFP–FSD2 (Arabidopsis thaliana); test: split reporter; BiFC; agro-injection of nYFP and cYFP fusions in N. benthamiana epidermal cells at OD600 0.1, observed after 1–2 d under epifluorescence microscopy

Binder | binding [1] | binding [2] | binding [3]
nYFP–LSU1 (protein, UniProt Q9SCK1 1-94) MANRGGCVTVAAEEMDELRRRNIELSREVAEMKTEMIKLWQRTVVAEEAEEQLCSQLAELEVESLEQARDYHDRMLFLMDQISRLSSSSVVSSS |  |  | binds
nYFP fusion with PHOSPHATASE AND TENSIN HOMOLOG DELETED ON CHROMOSOME TEN 1 (protein, UniProt Q9FLZ5 1-412) MGLKLSRGPVKEKSPLEFTRVHILTYFTTNSYLRNLVSKKRRRLIIGGYDLDMSYISDKLLAMSFPAERMRAVYRNPLWQVKSVLDMRHPDHYKVYNLCIEESYDPDNFYGRVERFPFDDNHVPSLKMIQLFCESVHSWLSLDPKNIAVVHCMAGKGRTGLMVSAYLVYGGMSAEEALEMYASRRTTNNNGVSIPSQRRYVKYWSDLLSFSKKGPPEVKLPQEHSRELLRIRLYDTANVDSVFFVVSELQEVPNEMYRPSVELARGCCRQFKKGYCRSSSPRYYISHVNCDSEEDEEVTDGEEPHLVVQMDTESSIIDEKTCLDFYFDKPVRVSGDIRITFYQKMIGSRLFYTCFNTAFITNGLLQFSIGELDKVGGNGRSISGPDFSLELLFGPACSKFGKFLSRDDLSLS |  |  | no binding
nYFP–LSU2 (protein, UniProt Q9FIR9 1-94) MGKGGNYVTVAASEVDELRRKNGEMEKAVEEMKKEMLQLWRRTQVAEEAEERLCSQLAELEAESLDQARDYHSRIIFLMNELSRLSSDSASASP |  |  | binds

The remaining lines, values ahead:

binding [1] | binding [2] | binding [3] | Binder
binds | no binding |  | GAL4 activation domain (AD)–LSU1 (protein, UniProt Q9SCK1 1-94) MANRGGCVTVAAEEMDELRRRNIELSREVAEMKTEMIKLWQRTVVAEEAEEQLCSQLAELEVESLEQARDYHDRMLFLMDQISRLSSSSVVSSS
binds | no binding |  | GAL4 activation domain (AD)–LSU2 (protein, UniProt Q9FIR9 1-94) MGKGGNYVTVAASEVDELRRKNGEMEKAVEEMKKEMLQLWRRTQVAEEAEERLCSQLAELEAESLDQARDYHSRIIFLMNELSRLSSDSASASP
